Each structure is given as a SMILES string. Screen size: about 310,000 compounds; about 2,200 (0.71%) showed an effect of 50% or more. Effects have a minus sign here. Some of the results follow.

human ether-à-go-go-related gene (hERG) potassium channel, sequence (Q12809 whole entry, looked up): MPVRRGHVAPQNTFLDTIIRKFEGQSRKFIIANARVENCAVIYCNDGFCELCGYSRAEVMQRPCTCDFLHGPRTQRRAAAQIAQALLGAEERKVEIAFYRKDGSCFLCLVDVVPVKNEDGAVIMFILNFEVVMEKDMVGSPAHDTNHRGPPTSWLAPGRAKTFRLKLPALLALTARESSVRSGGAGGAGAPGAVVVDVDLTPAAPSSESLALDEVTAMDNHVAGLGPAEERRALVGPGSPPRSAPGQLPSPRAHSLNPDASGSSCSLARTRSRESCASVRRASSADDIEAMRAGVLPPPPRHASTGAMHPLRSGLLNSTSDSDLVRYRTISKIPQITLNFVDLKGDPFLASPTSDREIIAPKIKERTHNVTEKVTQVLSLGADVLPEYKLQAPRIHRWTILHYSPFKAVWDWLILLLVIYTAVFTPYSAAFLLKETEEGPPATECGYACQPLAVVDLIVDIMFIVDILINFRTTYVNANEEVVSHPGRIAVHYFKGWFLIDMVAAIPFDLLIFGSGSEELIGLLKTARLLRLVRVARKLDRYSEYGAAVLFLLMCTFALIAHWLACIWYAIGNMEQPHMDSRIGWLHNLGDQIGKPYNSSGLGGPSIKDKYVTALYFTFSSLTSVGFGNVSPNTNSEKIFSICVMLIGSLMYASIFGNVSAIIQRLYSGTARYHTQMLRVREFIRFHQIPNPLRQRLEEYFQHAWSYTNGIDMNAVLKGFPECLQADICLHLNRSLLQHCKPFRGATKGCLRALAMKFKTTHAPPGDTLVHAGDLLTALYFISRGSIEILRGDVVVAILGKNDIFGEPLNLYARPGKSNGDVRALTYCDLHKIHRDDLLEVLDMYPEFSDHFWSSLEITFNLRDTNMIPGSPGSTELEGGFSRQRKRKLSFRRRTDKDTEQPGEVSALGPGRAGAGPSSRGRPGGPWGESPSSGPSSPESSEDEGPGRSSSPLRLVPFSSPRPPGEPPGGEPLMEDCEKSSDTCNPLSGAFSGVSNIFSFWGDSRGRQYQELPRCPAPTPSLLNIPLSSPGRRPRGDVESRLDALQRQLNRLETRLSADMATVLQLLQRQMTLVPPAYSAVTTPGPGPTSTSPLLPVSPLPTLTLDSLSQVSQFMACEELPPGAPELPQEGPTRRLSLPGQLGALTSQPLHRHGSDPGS

This experiment addresses human ether-à-go-go-related gene (hERG) potassium channel (human, UniProt Q12809). The experiment can be described thus: primary screen, population patch clamp on CHO cells stably expressing hERG.
As for `CCOc1ccccc1NC(=O)C(=O)CC(=O)c1cccc(OC)c1`, the “hERG current change (%, negative = inhibition) at 1uM” value worked out at 13.4%. `CS(=O)(=O)c1ccccc1C(=O)NC1CCCc2ccccc21` (stereo not drawn): the “hERG current change (%, negative = inhibition) at 1uM” value was 19%. `O=C(NCc1ccco1)c1ccc(F)c(S(=O)(=O)N2CCCCC2)c1`: the “hERG current change (%, negative = inhibition) at 1uM” value is recorded as 6.03%. In the case of `CCOC(=O)c1nn(-c2ccccc2)c(=O)cc1OCC(=O)Nc1cc(C)ccc1OC`, the “hERG current change (%, negative = inhibition) at 1uM” value came out at 2.21%. With `COC(=O)CSc1nc(-c2ccccc2)c2c(c1C#N)CCCC2` the figure was 5.6%; with `COC(=O)C1=C(c2ccc(S(C)(=O)=O)cc2)C[C@@H]2CC[C@H]1N2C(=O)NCc1ccc(C(F)(F)F)cc1`, -10.8%; with `COc1ccc(O)c(-c2cn[nH]c2-c2cccs2)c1`, 13.8%. Under `CN(C(=O)COC(=O)CSc1ccc([N+](=O)[O-])cc1)c1ccccc1` stands -0.194%; under `COc1ccc(N2CCN(Cc3nc4c(c(=O)n(C)c(=O)n4C)n3CCc3ccccc3)CC2)cc1`, 15.4%. In the case of `CCOC(=O)c1cnc2ccc(OC)cc2c1NCc1ccccc1`, the “hERG current change (%, negative = inhibition) at 1uM” value is -33.4%. With `Cn1nc(OC(=O)Nc2ccc(Cl)cc2)cc1C(F)(F)F` the figure was 4.33%; with `Cc1cccc(N2CCN(CCc3ccccc3)CC2)c1C`, -43.7%. For `CC(CCc1ccccc1)NCc1ccncc1` (stereo not drawn), the “hERG current change (%, negative = inhibition) at 1uM” value was -0.312%. Under `COc1cccc(C2=NOC(C(=O)NCc3ccco3)C2)c1` (stereo not drawn) stands 3.64%; under `CCN(CC)S(=O)(=O)c1ccc(=O)[nH]c1`, 15%.

For the compound `N#Cc1c(-c2ccc(F)cc2)nc(-c2ccccc2)[nH]c1=O`, the “hERG current change (%, negative = inhibition) at 1uM” value was 15.1%. In the case of `Cc1ccccc1OCC(=O)N(Cc1ccco1)c1c(N)n(Cc2ccccc2)c(=O)[nH]c1=O`, the “hERG current change (%, negative = inhibition) at 1uM” value is reported as 6.59%.

On to `CCC(C(=O)Nc1nccs1)(C(F)(F)F)C(F)(F)F`, for which the “hERG current change (%, negative = inhibition) at 1uM” value was found to be 4.35%.

Regarding `Cc1cc(NC(=O)CSc2nnnn2-c2ccccc2C)no1`, the “hERG current change (%, negative = inhibition) at 1uM” value stood at 10.7%.

Regarding `CCC1CN(C(=O)N2CCC(C(=O)NCc3ccccc3OC)CC2)c2ccccc2O1` (stereo not drawn), the “hERG current change (%, negative = inhibition) at 1uM” value is given as 15.9%. Under `O=C(O)CN1C(=O)CSc2ccccc21` stands -4.46%; under `CC(=O)OC[C@H]1O[C@@H](O/N=C/C[C@@H]2C=C[C@H](OC(C)=O)[C@@H](COC(C)=O)O2)[C@H](OC(C)=O)[C@@H](OC(C)=O)[C@@H]1OC(C)=O`, 4.34%. For the compound `CC(=O)c1ccc(OCc2cc(C(=O)N(C)Cc3cc(C)no3)no2)cc1`, the “hERG current change (%, negative = inhibition) at 1uM” value amounted to 11.8%. As for `CC(C)Nc1ncnc2c1cnn2-c1ccc(Cl)cc1`, the “hERG current change (%, negative = inhibition) at 1uM” value is 16.6%. Under `CC1CCCC(C)N1C(=S)SCC(=O)O` (stereo not drawn) stands 1.1%. With `Cc1ccc(S(=O)(=O)NCC(c2cccnc2)N2CCOCC2)cc1` (stereo not drawn) the figure was 13%; with `COc1ccc(S(=O)(=O)Cc2ccc(C(=O)NCCCN3CCc4ccccc4C3)o2)cc1`, -23%; with `CCOc1ccc(-c2nnc(-c3snc(-c4ccc(F)cc4)c3N=CN(C)C)o2)cc1`, 15.1%. With `O=C1CC(=O)Nc2cc(S(=O)(=O)N3CCN(c4ccc([N+](=O)[O-])cc4)CC3)ccc2N1` the figure was -13.6%; with `O=C(Cn1c(O)c(/C=C2\C=Nc3ccccc32)sc1=O)N1CCOCC1`, 12.6%; with `O=C(c1cccc(S(=O)(=O)N2CCOCC2)c1)N1CCCCCC1`, 0.148%. Consider `CCOc1ccc(CNC(=O)CS(=O)(=O)Cc2nc(-c3ccc(OC)cc3)oc2C)cc1`, for which the “hERG current change (%, negative = inhibition) at 1uM” value came out at 16.6%. With `CC(NS(=O)(=O)c1ccccc1)C(=O)NCc1ccco1` (stereo not drawn) the figure was 8.63%.

As for `COc1ccc(Cl)cc1C(=O)Nc1ccc2c(c1)OCCO2`, the “hERG current change (%, negative = inhibition) at 1uM” value is listed as 12.6%. As to `O=C(CNC(=O)c1ccco1)Nc1cccc(Cl)c1`, the “hERG current change (%, negative = inhibition) at 1uM” value is reported as 8.11%. With `COC(=O)c1ccc(C(=O)Nc2ccc3nc(-c4cccnc4)[nH]c3c2)cc1`, the “hERG current change (%, negative = inhibition) at 1uM” value is recorded as 17%.

In the case of `CCn1c(/C=C/c2cccc([N+](=O)[O-])c2)nc2ccccc2c1=O`, the “hERG current change (%, negative = inhibition) at 1uM” value is 15.8%. With `Cc1ccc(Cl)c2sc(NC(=O)C3CC3)nc12`, the “hERG current change (%, negative = inhibition) at 1uM” value worked out at 12.4%.

Consider `CC(=O)NCCc1nc2cc(NC(=O)c3ccc(F)cc3)ccc2n1C`, for which the “hERG current change (%, negative = inhibition) at 1uM” value came out at 9.46%. For the compound `COc1ccc(-n2nc(C(=O)NCC3CCCO3)c3ccccc3c2=O)cc1` (stereo not drawn), the “hERG current change (%, negative = inhibition) at 1uM” value is listed as 35.4%.

Take `N#Cc1nc(-c2ccco2)oc1N1CCOCC1`: the “hERG current change (%, negative = inhibition) at 1uM” value stood at 10.1%. With `CC1CCCCC1NC(=O)COC(=O)c1ccc2ccccc2n1` (stereo not drawn) the figure was 3.71%; with `COc1ccc(CNC(=O)c2nccnc2CO)cc1`, 14.9%. Under `COc1ccc(CNC(=O)N2CCc3ccccc3C2)cc1` stands 22.5%; under `CC1(C)Cc2[nH]c(=S)c(C#N)cc2CO1`, 15.8%; under `Cc1ccc(C)c(C(=O)CSc2nc(N)cc(=O)[nH]2)c1`, 6%. Consider `CCn1c(CNC(=O)c2cccc(C)c2)nnc1SCC(=O)NC1=NCCS1`, for which the “hERG current change (%, negative = inhibition) at 1uM” value was found to be 15.3%. `Cc1c(NC(=O)c2cc(-c3cccc(Cl)c3)on2)c(=O)n(-c2ccccc2)n1C`: the “hERG current change (%, negative = inhibition) at 1uM” value came to 0.359%. Under `O=C(COC(=O)c1cc([N+](=O)[O-])ccc1NCCO)c1ccc(Cl)cc1` stands 12.1%; under `Cc1n[nH]c(=O)nc1Nc1ccc(O)cc1`, -15.3%; under `CCOC(=O)CSc1nnc(CCCCCN2C(=O)c3cccc4cccc(c34)C2=O)o1`, -2.51%. With `Cc1ccc(C(=O)NCCCN2CCOCC2)c(C)c1` the figure was 18.8%; with `COc1ccc(OC)c2sc(N3CCc4ccccc4C3)nc12`, 6.61%; with `O=C(NCc1c[nH]c2ccccc12)c1ccccc1`, 11%. Take `CC(C)OP(=O)(OC(C)C)C(Nc1ccccc1)c1ccccc1C(F)(F)F` (stereo not drawn): the “hERG current change (%, negative = inhibition) at 1uM” value was found to be 4.33%. `CC(CC(C)C(=O)N1CCOCCN(C(=O)C(C)CC(C)C(=O)O)CCOCC1)C(=O)O` (stereo not drawn): the “hERG current change (%, negative = inhibition) at 1uM” value amounted to 7.17%.

`CCN(C(=O)CN1C(=O)/C(=C/c2ccc(F)cc2)SC1=S)C1CCS(=O)(=O)C1` (stereo not drawn): the “hERG current change (%, negative = inhibition) at 1uM” value is 8.43%.
